In publication PMC7819943, “Rice protein-binding microarrays: a tool to detect cis-acting elements near promoter regions in rice”:
The list shows a part of the results.

The sequences below were run against T1, OsWOX13 (Oryza sativa, UniProt Q5QMM3 1-267) (assay: protein-binding microarray (RPBM); PBS, 2% BSA, 51.3 ng/ul salmon testes DNA, 50 uM zinc acetate, 200 nM TF, 25 C, 1 h; high values mean tight binding). Settings: protein: recombinant; tags: N-terminal polyhistidine and DsRed monomer fusion (pET32a); label: CyDye5-dUTP incorporated in the synthesized complementary strand; 3' TTTTT single-stranded linker to array surface; dsDNA, one strand shown.
T1 sequence: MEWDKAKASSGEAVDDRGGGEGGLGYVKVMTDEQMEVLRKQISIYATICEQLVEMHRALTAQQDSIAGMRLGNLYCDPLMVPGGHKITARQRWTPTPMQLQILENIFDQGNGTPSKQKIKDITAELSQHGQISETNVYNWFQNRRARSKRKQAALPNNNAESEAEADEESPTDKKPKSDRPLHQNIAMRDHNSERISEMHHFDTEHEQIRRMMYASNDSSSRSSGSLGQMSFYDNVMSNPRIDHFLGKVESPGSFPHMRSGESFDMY
Procedure, shortened: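 Using Ni–NTA, transcription factors fused N-terminally to polyhistidine and DsRed were purified after expression in E. coli BL21-CodonPlus. These were incubated at 200 nM with a blocked, double-stranded custom Agilent array for 1 h at 25 °C in a buffer containing 50 µM zinc acetate, and the array was washed. The binding signal is per-feature fluorescence intensity (arbitrary units) on an Axon 4000B scanner.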

Sequence | binding signal
TCTAAATTTTCATGACATGGTACCATACTACAAATCCATCCGGAGTCACCTAGTGCAG | 9500 fluorescence intensity (a.u.)
CGCCTTTCCATCATCATTTACGCCCAACCCCAACACATGTCGGAGTCACCTAGTGCAG | 3750 fluorescence intensity (a.u.)
AGTTACATGCAAATTATAGTGTAATTATATATAAGTTACACGGAGTCACCTAGTGCAG | 8130 fluorescence intensity (a.u.)
AGAAAACCAATTACACAATTTGTATGTAAATTATAAGATGCGGAGTCACCTAGTGCAG | 4570 fluorescence intensity (a.u.)
GTTATATTGACAGCAAACATTATGGCCAGCTTGGTCTCACCGGAGTCACCTAGTGCAG | 30500 fluorescence intensity (a.u.)
TATGTTGACAAATTTGAGGCGGTTTGTATCTTTCACTTTCCGGAGTCACCTAGTGCAG | 3840 fluorescence intensity (a.u.)
CACATTAAATATTTAGACACTAATTATAAATATTAAATATCGGAGTCACCTAGTGCAG | 3270 fluorescence intensity (a.u.)
TAATTAATTAAGTTTTAATTATTACAAACTTGAGAAATATCGGAGTCACCTAGTGCAG | 23300 fluorescence intensity (a.u.)
TGGCGTGATTTGATTAATAGCGGAAAGAGATTCCACATTCCGGAGTCACCTAGTGCAG | 26400 fluorescence intensity (a.u.)
AATTGAATTGAAACTATTGATGAATGAATTCACCAGCCAGCGGAGTCACCTAGTGCAG | 16900 fluorescence intensity (a.u.)
ATGTTAAATGACATAGATGAATAAATTTAGTTACATGTGTCGGAGTCACCTAGTGCAG | 14500 fluorescence intensity (a.u.)
CAAAATTGGCTCCTCACCCTTGTGCAGATGCAGCCTTCTTCGGAGTCACCTAGTGCAG | 13700 fluorescence intensity (a.u.)
AAAATATAATTAGAACAATAATGATGATACGTATATATTGCGGAGTCACCTAGTGCAG | 18700 fluorescence intensity (a.u.)
ATATAAAATTGATGTTATTAGATGTTTTAAATAATATCTACGGAGTCACCTAGTGCAG | 12300 fluorescence intensity (a.u.)
CTCGAGGTCTTGATTAGCTTGTACAGTTTGTCCTCGAGCTCGGAGTCACCTAGTGCAG | 7820 fluorescence intensity (a.u.)
ATATATGGTTAACTGTAATCAGGACCTACCCTGACCAGATCGGAGTCACCTAGTGCAG | 4980 fluorescence intensity (a.u.)
GCAGTCAATTTTCACCACCAAACTCAACTGGCACCATCATCGGAGTCACCTAGTGCAG | 3560 fluorescence intensity (a.u.)
ATAGCTTTGATTACTATTTCTATTATAATATATATAGAAACGGAGTCACCTAGTGCAG | 7780 fluorescence intensity (a.u.)
TGTTAATTTGTGCTTCTGGGGTCCTTGTTTATGTATGGCCCGGAGTCACCTAGTGCAG | 28500 fluorescence intensity (a.u.)
GATACTCCAAATGATTTTAAATGGAAAAGTGATAAACTACCGGAGTCACCTAGTGCAG | 3210 fluorescence intensity (a.u.)
TATATCCAATTCAAATTTTAATTTGAATTCAAATAGTTTCCGGAGTCACCTAGTGCAG | 3460 fluorescence intensity (a.u.)

Sequence | binding signal
ATTCGAGACAAGATCAATTAATTGCAAGAATGATCCATCACGGAGTCACCTAGTGCAG | 13800 fluorescence intensity (a.u.)
GGTTGAGGGTGATGATTAGTAAGATACTGGGGATGCTCGACGGAGTCACCTAGTGCAG | 9270 fluorescence intensity (a.u.)
CTACCAAATAATTGGCAATTTAAATAGTACTTTGTAGATGCGGAGTCACCTAGTGCAG | 38400 fluorescence intensity (a.u.)
ATCTGATTGTCGGATGATCGTGGGTCAGTCTTCTATCAAGCGGAGTCACCTAGTGCAG | 41400 fluorescence intensity (a.u.)
ATAGCTAATTAAGACCGGTTAATTTTGGGCTACAATGACTCGGAGTCACCTAGTGCAG | 37600 fluorescence intensity (a.u.)
TTAATTACTTCTTCAAGTAATTACTATTTATATTGGACTGCGGAGTCACCTAGTGCAG | 13200 fluorescence intensity (a.u.)
TCAATTTATATTGGTTTTAATAATTGAAAGGACGTGATATCGGAGTCACCTAGTGCAG | 8780 fluorescence intensity (a.u.)
GAGGCGCATTCAATCATGAGAAGGAAAAGGAGGGACTCCACGGAGTCACCTAGTGCAG | 3350 fluorescence intensity (a.u.)
AGTACTAATTACTCGAGACGCATACTAATAGCCGTATAGACGGAGTCACCTAGTGCAG | 15500 fluorescence intensity (a.u.)
GCTTTTGATAGATGTCTAAGAAGCAAATAACTTAGTCTTTCGGAGTCACCTAGTGCAG | 12200 fluorescence intensity (a.u.)
AATAAATTTAAAATTGCAATCGATATTAGCAAAATCCTATCGGAGTCACCTAGTGCAG | 20700 fluorescence intensity (a.u.)
TTGCATGTTTGTGGATTGATACATTAGATATTGATCTATCCGGAGTCACCTAGTGCAG | 3540 fluorescence intensity (a.u.)
ACACTGGTGATTGGTTTGAATGCTTGCTCACGAGTTGGGTCGGAGTCACCTAGTGCAG | 45200 fluorescence intensity (a.u.)
TGACTGATCTAATTACTGAATGTTTTATGAATTTCTGCAGCGGAGTCACCTAGTGCAG | 13600 fluorescence intensity (a.u.)
ATGATTTGACGCACATCCATCCACTCAGGAACATCGAATTCGGAGTCACCTAGTGCAG | 15000 fluorescence intensity (a.u.)
TCCCTGATTAGAATTCCATTCCTTTAACAAATCAGCATTCCGGAGTCACCTAGTGCAG | 37300 fluorescence intensity (a.u.)
CTAGGTAACTAAATTAATCTTCTTATCATTTTGGAATTTACGGAGTCACCTAGTGCAG | 3430 fluorescence intensity (a.u.)
TAAAATTTGAGTAAATTTCACAAAACAACAGGTATTCTGACGGAGTCACCTAGTGCAG | 4940 fluorescence intensity (a.u.)
CGTGATTAATGTTGGATGCTATCTGCTATTTATACCTGCACGGAGTCACCTAGTGCAG | 43200 fluorescence intensity (a.u.)
CGTTATTAAGGGTAAATTATAAATTTACTAATATAATGATCGGAGTCACCTAGTGCAG | 4480 fluorescence intensity (a.u.)
CATCTCAGTGCCGATTGCTTGATTAGCCCTAGCGACACGGCGGAGTCACCTAGTGCAG | 4390 fluorescence intensity (a.u.)
